# From the supplement of paper PMC3334620
# Whole data set: some 33,000 sequences, median “E-score (-0.5 to 0.5)” near -0.036, cut for the highest 2% near 0.37. The list shows a part of the results.
# Molecular target: T1, Yer064c (UniProt P40041)
# T1 sequence: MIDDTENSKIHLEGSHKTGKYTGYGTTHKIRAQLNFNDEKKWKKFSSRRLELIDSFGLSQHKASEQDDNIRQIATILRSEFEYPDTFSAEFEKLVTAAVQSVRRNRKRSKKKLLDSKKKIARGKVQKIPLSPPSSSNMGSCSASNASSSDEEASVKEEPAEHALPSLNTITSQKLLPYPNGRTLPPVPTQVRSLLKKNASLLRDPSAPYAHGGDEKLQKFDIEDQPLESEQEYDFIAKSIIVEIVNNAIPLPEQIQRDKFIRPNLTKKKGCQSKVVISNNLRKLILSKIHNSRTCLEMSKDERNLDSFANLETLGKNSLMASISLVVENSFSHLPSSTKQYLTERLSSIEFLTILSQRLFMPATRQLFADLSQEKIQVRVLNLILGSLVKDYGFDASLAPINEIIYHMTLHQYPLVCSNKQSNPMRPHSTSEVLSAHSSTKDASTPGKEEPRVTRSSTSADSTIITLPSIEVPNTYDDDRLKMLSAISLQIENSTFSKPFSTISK
# Test: PBM E-score (8-mer binding enrichment) (E-score (-0.5 to 0.5)); higher = stronger / more preferred TF binding; most listed sequences are background and not binding sites
# Conditions: protein concentration: 200 nM; construct: GST-full length
# In short: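 Yeast transcription factors carrying a GST tag, as full-length proteins or DNA-binding domains, were produced by PURExpress in vitro transcription/translation. About 100-200 nM protein was applied to universal all-10-mer Agilent arrays, double-stranded by primer extension on fresh or once-stripped slides. Bound protein was detected with fluorescent anti-GST, and scans were normalised with masliner. The Universal PBM Analysis Suite gave each ungapped eight-base word, pooled with its reverse complement, an E-score, a modified Wilcoxon-Mann-Whitney statistic.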
row,Sequence,PBM E-score
1,GGCGGCCA,-0.204
2,ATATTCGG,-0.116
3,ATTTACGC,-0.0772
4,TATACTAA,0.149
5,GCTTGCTA,-0.312
6,AGTTGAGA,0.0944
7,CGCACACA,0.143
8,AAGTTTCA,0.0363
9,CGTCAGTC,0.291
10,GGCGCCAA,-0.352
11,ACCGACAG,-0.208
12,ACCGAGTC,0.377
13,ACTATATA,0.18
14,CCCGACCC,-0.207
15,CTGATAAA,0.157
16,GATAGCCA,0.112
17,AGGCCCAG,-0.281
18,CATGCTAC,-0.135
19,CCGTGCTC,-0.21
20,CCTCGTCC,-0.198
21,GGTATGAC,0.308
22,ATATGTTC,-0.139
23,CCTCTGAA,-0.0251
24,ATAATCAC,0.385
25,TTACAAAA,0.0752

row,Sequence,PBM E-score
1,GGCCCAGA,-0.391
2,AAGCCGAT,-0.0488
3,CCCCGGGA,-0.193
4,AGAAGATC,-0.32
5,CCTGCGGC,-0.405
6,AAACCACC,0.0204
7,ACTACCCA,0.135
8,AGCAACAT,-0.139
9,CCGAGCTC,-0.0589
10,CCAGTGCA,-0.0779
11,AGGTCATA,0.171
12,ACATAAAT,-0.0522
13,GGACTAAC,0.367
14,CAGTCGAG,-0.0393
15,GACCTGGA,-0.0618
16,AACCTCCT,-0.186
17,AAAGAATG,0.178
18,AGCCTAAC,-0.0685
19,GCCCCACC,-0.136
20,AGTGGCCC,-0.282
21,CAATCCGA,0.129
22,ACCAAAAC,-0.106
23,TAACACTA,0.18
24,ATGTCTCC,0.216
25,ACCGGGAG,-0.212

row,Sequence,PBM E-score
1,AGGACCGG,-0.187
2,GGACCGGA,-0.143
3,CTGGACGC,-0.15
4,CGTGAAGA,-0.0808
5,GAATATCA,-0.0168
6,CCTTCTTA,-0.0621
7,GGCAGCCA,0.0126
8,CACAACCG,-0.14
9,ATAAGATC,-0.0195
10,CAGATCCC,-0.247
11,ATGTGGAC,-0.0654
12,CTACTTGA,0.0304
13,ATGGACGA,0.0625
14,GCTCTAGA,0.0383
15,GTGGCGTA,-0.154
16,TCGACCAA,-0.188
17,TATTCCAA,-0.0766
18,CTGTTACC,-0.197
19,GCGTAGAC,-0.0194
20,ATGTTGTG,0.106
21,ACCGGCGC,0.0536
22,ACCGCCAA,0.107
23,CATTCTTA,0.0443
24,AGGAACTG,-0.137
25,ACTTCGAC,0.209

row,Sequence,PBM E-score
1,CGCCAAAA,-0.204
2,CTCTGATC,0.0053
3,ATCCAAGA,-0.0668
4,CATGCTGG,0.00618
5,ACTCCGCG,0.203
6,GTGGAATA,0.187
7,ACGACAGA,-0.17
8,GACGAGCA,0.0725
9,TGAGATAA,-0.0838
10,CCTTCGGA,0.017
11,CGCTCAGA,-0.0231
12,AACTGCCA,0.0158
13,AGCGCATA,-0.141
14,CTTAGGTC,0.0461
15,AGCATACG,-0.221
16,ATCCCACG,0.07
17,CCTATAGC,-0.178
18,ACGTCATA,0.104
19,GCCAGATA,-0.0789
20,CTAATATC,0.0994
21,CCGTCAGC,-0.272
22,ACCATCAA,0.0631
23,CTCACTAA,0.234
24,GCACAGTA,-0.0488
25,CGACTTTC,0.172

row,Sequence,PBM E-score
1,CATGGGAC,-0.145
2,AACGGTCA,-0.126
3,GCAGGGCC,-0.282
4,GGACGGAC,-0.104
5,GATGGCAA,-0.164
6,AGTCCTTG,0.331
7,AGTGCCCA,-0.189
8,CGCCGCTA,-0.281
9,TAAAGCTA,0.0682
10,GCAAGAAA,-0.161
11,ATCGTATC,-0.0124
12,CGCAAGAA,-0.147
13,CCGAGACG,-0.108
14,AACTGCCG,-0.143
15,AATACCGG,-0.229
16,ATCGTCAG,0.0383
17,ATCACTGA,0.22
18,CTACTGCA,-0.0611
19,CGCCTGTC,-0.224
20,CAGTCAGG,0.333
21,GAAATATA,0.0173
22,CAAGAGAG,-0.00176
23,AAGGCGTC,-0.181
24,TAGATACA,-0.055
25,ACCATGCC,0.0483

row,Sequence,PBM E-score
1,GTCGAGGA,-0.037
2,AACCACAG,0.0649
3,CAGGCCGG,-0.193
4,GCCGTACC,-0.313
5,ACGAAATA,-0.00015
6,CAGTCCGA,0.204
7,CCTGCCCA,-0.428
8,CCGTGGAG,-0.0436
9,CATGCGAA,-0.0131
10,CTGTAAAG,-0.0482
11,CCCTCATC,-0.22
12,CCTCGCAG,-0.0313
13,ACGCCAAT,-0.149
14,ATTGTGAG,0.2
15,AATAGACG,-0.219
16,AAGCCCTC,-0.262
17,CCGCGGGC,-0.0616
18,CTAAATGA,0.151
19,TCATAAAA,0.325
20,ATCAAGCC,0.172
21,AAAGTGGT,-0.00593
22,ACACATAC,0.0851
23,GCTCTTCC,-0.163
24,AAACCGAC,-0.031
25,CAAAACGG,-0.0529

row,Sequence,PBM E-score
1,ATCTCTGA,0.0942
2,CCTAACCG,-0.105
3,CGTGCCGC,-0.172
4,ACACTGAG,0.066
5,ATTCATCG,0.205
6,ACTTGAAG,0.148
7,GCAAACTA,-0.0524
8,CAGAAACA,-0.119
9,AATCCGAT,0.199
10,CCAGTGTC,-0.0118
11,GGACTGAA,0.109
12,AGCGGTTC,-0.119
13,ACACCTAA,0.0546
14,ACGGAATG,-0.162
15,ACAGATGA,0.0984
16,AACACCCT,0.0248
17,AAACCAGA,0.055
18,ACGGGGAA,-0.0407
19,AGCGATGC,-0.322
20,ATTGGTAA,-0.0186
21,GCGTGGCC,-0.336
22,AGAATCAT,0.44
23,ACAAGTGC,-0.0107
24,CGGCCTTA,-0.0403
25,CTCGAGCA,0.0568

row,Sequence,PBM E-score
1,CTTCATCC,-0.219
2,TTAATCAA,0.371
3,CCGAGACC,-0.217
4,GTACTATA,0.0662
5,CAGGAAAC,0.082
6,AACTTACG,-0.123
7,CATCACCC,-0.0525
8,GGAGCAAC,-0.186
9,ACAGCGCT,-0.0964
10,AAGTTGAC,0.268
11,AGCGAAGC,-0.183
12,GTGAAAAC,-0.151
13,CAAAAGCA,-0.0906
14,GAACCGAA,0.0189
15,GGGAAACC,-0.0566
16,AAATCCGG,-0.0403
17,CGGGGCTC,-0.306
18,AGGTAAAT,-0.00442
19,GGTGATAA,-0.111
20,CGTTAATC,0.349
21,CGAGGGGA,-0.132
22,ACCAACCT,-0.158
23,CTAAACAA,0.0295
24,ATCCCCCG,-0.223
25,GCTATTAC,-0.0358

row,Sequence,PBM E-score
1,GGATGCCA,-0.13
2,GGTCAGTA,-0.0314
3,GGGAATAC,-0.172
4,TAGCACTA,-0.0183
5,ACAGTCTA,-0.0414
6,CCACTTGA,-0.00241
7,CACTAGAG,0.0358
8,AGTCGCGG,0.365
9,TGCGGAAA,-0.173
10,ACGTTACA,0.151
11,CGGGCTAG,-0.217
12,GGTGGAAC,-0.257
13,TCTCGAAA,0.0754
14,AACAGCGG,-0.176
15,AGCTTTGC,-0.272
16,ACGAGAAA,0.123
17,AAGTCCCG,-0.228
18,AAATTGTC,-0.169
19,AAGTTAAT,0.284
